The record followed here is the supplement of paper PMC11417369.

This is one part of the list.

The subject of this assay is PF3D7_0420300 AP2 domain 1 (GST-tagged). Briefly: gcPBM binding intensity (ln(normalized median fluorescence intensity)); higher = stronger DNA binding. A digest of the protocol: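 Binding of GST-tagged P. falciparum DNA-binding domains, expressed in E. coli and used at about 25 μg on average, was carried out for 1 h in 1× PBS containing 1% milk, 0.2 mg/ml BSA, 0.5% salmon testes DNA and 0.03% Triton X-100. The target was an Agilent 4 × 180k array of primer-extended double-stranded 36-bp intergenic genomic probes plus negative controls, read with Alexa488 anti-GST antibody at 488 nm. Binding intensity is the highest Masliner-normalised natural-log median intensity across replicate spots of either probe orientation.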
As for “TATTTCATTAATGTCACTTTGAAAGAAATGAAAAAA [CACACA_negctrl_site1803]”, the “gcPBM binding intensity (ln)” value amounted to 8.82.

Consider “TGTTTTTAAAAAAAAAAAAAATCACACCGGCAGGTA [CACACA_negctrl_site1437]”, for which the “gcPBM binding intensity (ln)” value amounted to 8.99.

Take “TGCGTATATATATACACACACATATATATATTTTAA [CACACA_site1952]”: the “gcPBM binding intensity (ln)” value turned out to be 9.52.

As for TATTGACATATATTAGTGCAATAATGAAATCAAGTA, the “gcPBM binding intensity (ln)” value was 9.22.

In the case of “CATATTATTCTTTTCACACACGCGTTAATAATAATC [CACACA_site3931]”, the “gcPBM binding intensity (ln)” value was found to be 9.61.

On to “TTTATATTAAAATATTGTACGGACATTATTTTGTAA [XGTACX_site8128]”, for which the “gcPBM binding intensity (ln)” value was found to be 8.89.

Take “CATAATATGACATACACACACAAAAAAAAAAAAATA [CACACA_site1285]”: the “gcPBM binding intensity (ln)” value stood at 9.91.

“AACCGGGCCTAAGATGTAATGCCTTAGCCTATAAAA [CACACA_negctrl_site479]”: the “gcPBM binding intensity (ln)” value was determined as 8.92.

Regarding “ATAAATATTTACAAAAGTACACATAACTTTAGATAT [XGTACX_site1685]”, the “gcPBM binding intensity (ln)” value was found to be 9.33.

Consider “TAAACATAATATTTAACACACATGAAGATGTATATT [CACACA_site1036]”, for which the “gcPBM binding intensity (ln)” value is 9.41.

As to “CACCATGATACATACACACAGACATATACGCATTCA [CACACA_site1008]”, the “gcPBM binding intensity (ln)” value was found to be 9.58.

Take “GTTTTGGCTAACTATTCACACATTAAAATATTACCA [CACACA_site5016]”: the “gcPBM binding intensity (ln)” value amounted to 9.34.

In the case of “ACAATCCACAGGGGCGCACACATATAAGCAGTATAT [CACACA_site3817]”, the “gcPBM binding intensity (ln)” value stood at 9.62.

On to “AAAAAATTAATAAAAACACACAAAAAAAATAAACAA [CACACA_site1907]”, for which the “gcPBM binding intensity (ln)” value was determined as 9.69.

For the sequence “TTTGTTGTTTGGAGATGTACATATTTTACACTTTTT [XGTACX_site5965]”, the “gcPBM binding intensity (ln)” value amounted to 9.55.

Turning to “ATTTCACAGAGACACACACACAATATATTTCCTTTT [CACACA_site7773]”, the “gcPBM binding intensity (ln)” value was 9.94.

For the sequence “TCGTGCATAAATCATACACACACACCGATATATATA [CACACA_site8767]”, the “gcPBM binding intensity (ln)” value came out at 9.98.

As for “TTTGTATCCTTTTTGACATGCAACCATTCGGGTACA [TGCATGCA_site506]”, the “gcPBM binding intensity (ln)” value was 9.02.

Turning to “AAAAAAAAAAAAAACGCACACATTTTTACAATTCTA [CACACA_site3271]”, the “gcPBM binding intensity (ln)” value came to 9.35.

As for “TCACAATTTTTTAGTACACACATATAAATATATAAA [CACACA_site1537]”, the “gcPBM binding intensity (ln)” value is 9.24.

As for “TTTCATTAATCTAATAGTACAGAAAATTGAGAAAAA [XGTACX_site8395]”, the “gcPBM binding intensity (ln)” value was determined as 8.94.

Consider “TCTATTAATTAATATACACACATTATGTATATATAT [CACACA_site2541]”, for which the “gcPBM binding intensity (ln)” value worked out at 9.46.

On to “GTATACAAACATATAAATATAAATGTATTATTTGTT [CACACA_negctrl_site756]”, for which the “gcPBM binding intensity (ln)” value turned out to be 9.2.

For “CACGAACACAAACACAAACACACATCATATATATAT [CACACA_site1322]”, the “gcPBM binding intensity (ln)” value was found to be 9.83.

With “AAAGATAAAAAAAGTACACACACACCGATATATATA [CACACA_site9006]”, the “gcPBM binding intensity (ln)” value came to 10.2.

For the sequence ACTTTAACCTGAACGGTGCATAAAATTTTGGCATTA, the “gcPBM binding intensity (ln)” value is 9.1.

On to “AATATATATAAAAAGGGAAAAATATATAAATAGATA [XGTACX_negctrl_site52]”, for which the “gcPBM binding intensity (ln)” value came to 9.51.

Regarding “AAAAAATTGACTAATGCACACAATTACAGATATATA [CACACA_site5010]”, the “gcPBM binding intensity (ln)” value was found to be 9.51.

Turning to “CATATTTTCAAAATTAGTACATAAAAAAAAAAATAT [XGTACX_site3101]”, the “gcPBM binding intensity (ln)” value is 9.37.

“TATAATCATATATACACACACATATATATATATATA [CACACA_site2168]”: the “gcPBM binding intensity (ln)” value was found to be 9.59.

For “TCTTCCGCTTTATGGAGTACTATGGTAGCCTTTCCT [XGTACX_site2958]”, the “gcPBM binding intensity (ln)” value is 9.14.

With “GACCTACAAAAAGGCACACATATACGCATACATACA [CACACA_site2179]”, the “gcPBM binding intensity (ln)” value was 9.38.

For “ATATGCATAAAAAGAGGTACACATAAAATATATATA [XGTACX_site5864]”, the “gcPBM binding intensity (ln)” value is 9.58.

For the sequence “TATACACATATATAAAGTACATATATGTGTAAAAAA [XGTACX_site8582]”, the “gcPBM binding intensity (ln)” value worked out at 9.4.

For “CAAAAAATGAAACACACACACACACCCATAAATAAA [CACACA_site1231]”, the “gcPBM binding intensity (ln)” value is 10.1.

For TCATATATAAAAAGGGTGCTTTTAAAAGAATGGATT, the “gcPBM binding intensity (ln)” value is 9.26.

As for “CAGATATTTGTTCATATACACACTTTTGATAAAATA [CACACA_site1219]”, the “gcPBM binding intensity (ln)” value was determined as 9.34.

As to “AATATTTTTTGTTTTACACACATATATAGATATATA [CACACA_site7662]”, the “gcPBM binding intensity (ln)” value amounted to 9.67.

For the sequence “TTTTTTTTTGTATTTTCACACATTTTTTTTTTTTTT [CACACA_site5407]”, the “gcPBM binding intensity (ln)” value was 9.48.

With “TTATTTAAACAAATCACACACAAATATATATACATA [CACACA_site2019]”, the “gcPBM binding intensity (ln)” value turned out to be 9.71.

Consider AAAAATACAATTTTCTTGCACTTTGTTGCATTGTAA, for which the “gcPBM binding intensity (ln)” value was found to be 9.12.

For the sequence “AACATATACACGAACACACACACATATAAATAAATA [CACACA_site6380]”, the “gcPBM binding intensity (ln)” value came to 9.96.

Consider “CAAAATATAAAAACATGTACATAAATATTAACGAAT [XGTACX_site2380]”, for which the “gcPBM binding intensity (ln)” value turned out to be 9.7.

In the case of “TCATCCACATATTGTAGTACAAGATAATTGTTTATT [XGTACX_site1634]”, the “gcPBM binding intensity (ln)” value turned out to be 9.25.

For the sequence “ATATGTTTATTAAATGCATGTCAAGACTTAAGATAT [TGCATGCA_site329]”, the “gcPBM binding intensity (ln)” value was 9.24.

For the sequence “AATTTTAATTATATCACACATAATATATACCAAAAA [CACACA_site6011]”, the “gcPBM binding intensity (ln)” value was determined as 9.31.

For the sequence “AAAAAAAAAAGACACACACACACACGGAGATATATA [CACACA_site6216]”, the “gcPBM binding intensity (ln)” value turned out to be 10.3.

For the sequence “TTTAATACTTTTTTCTGTACACACTTGATTTACTAT [XGTACX_site5925]”, the “gcPBM binding intensity (ln)” value worked out at 9.68.

With “TACATATTTTTATATACACACAATAATTACTATAAA [CACACA_site6879]”, the “gcPBM binding intensity (ln)” value was 9.4.

With “AAAATACATAAACGTTCACACATTGAAGATCACAAG [CACACA_site5347]”, the “gcPBM binding intensity (ln)” value was found to be 9.55.

On to TAGGTACATAAATTGGTGCAAAGTGTACATATATAT, for which the “gcPBM binding intensity (ln)” value is 9.53.

With TTATATTTTCTCCGCGTGCACATATGTATACTATAC, the “gcPBM binding intensity (ln)” value was found to be 9.55.

Turning to “TAGGGTAGTTATAATTGTACTTTTCTCCAAAAAAAA [XGTACX_site7321]”, the “gcPBM binding intensity (ln)” value came to 8.95.

As to “TTTTTGTTTTTTTGTTTATCGTTCGTGACTACATGA [TGCATGCA_negctrl_site124]”, the “gcPBM binding intensity (ln)” value came to 9.3.

Take “GAAATCTAAATAGAAACACACATATATATATATATA [CACACA_site3863]”: the “gcPBM binding intensity (ln)” value worked out at 9.1.

“AAAAATAAAAAATATAAAAATATAAAAATATAAAAA [XGTACX_negctrl_site51]”: the “gcPBM binding intensity (ln)” value was 9.21.

“TTTATTATTTTAACGTGTACAAGGTATATAATATTC [XGTACX_site5241]”: the “gcPBM binding intensity (ln)” value stood at 9.18.

Turning to “TAGGTAAATGCAAATTGGTTTAAATCAAAATATAAA [XGTACX_negctrl_site250]”, the “gcPBM binding intensity (ln)” value was 9.17.
